The values below come from the supplement of paper PMC8728848.

Holding throughout (test): glycan array binding signal (z-score within array); higher = stronger binding
Conditions in all cases: glycan notation: IUPAC condensed, linker removed

In test [1] the target is Gal(b1-4)GlcNAc(b1-2)Man(a1-6)[Man(a1-3)]Man(b1-4)GlcNAc(b1-4)GlcNAc. A digest of the protocol: (§1)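 Arrays were curated from the Consortium for Functional Glycomics database, 3228 in total, and kept only where the protein sequence was available. Binding is expressed as a within-array Z-score. This score was averaged across arrays of the same protein sequence at different concentrations or buffers and across linkers, and negative values can be read as non-binding.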

Test [2] addresses Gal(b1-4)GlcNAc(b1-2)[Gal(b1-4)GlcNAc(b1-4)]Man(a1-3)[Gal(b1-4)GlcNAc(b1-2)Man(a1-6)]Man(b1-4)GlcNAc(b1-4)GlcNAc. A digest of the protocol: as §1
Test [3] has as its target Gal(b1-4)GlcNAc(b1-2)[Gal(b1-4)GlcNAc(b1-4)]Man(a1-3)[Gal(b1-4)GlcNAc(b1-2)[Gal(b1-4)GlcNAc(b1-6)]Man(a1-6)]Man(b1-4)GlcNAc(b1-4)GlcNAc. A digest of the protocol: as §1
Test [4] concerns the target Gal(b1-4)GlcNAc(b1-2)[Gal(b1-4)GlcNAc(b1-4)]Man(a1-3)[GlcNAc(b1-4)][Gal(b1-4)GlcNAc(b1-2)Man(a1-6)]Man(b1-4)GlcNAc(b1-4)GlcNAc. The method, boiled down:
as §1

For test [5], the target named is Gal(b1-4)GlcNAc(b1-2)[Gal(b1-4)GlcNAc(b1-4)]Man(a1-3)[GlcNAc(b1-4)][Gal(b1-4)GlcNAc(b1-2)[Gal(b1-4)GlcNAc(b1-6)]Man(a1-6)]Man(b1-4)GlcNAc(b1-4)GlcNAc. The method, boiled down: as §1
Test [6] addresses Gal(b1-4)GlcNAc(b1-2)[Gal(b1-4)GlcNAc(b1-6)]Man(a1-6)[Gal(b1-4)GlcNAc(b1-2)Man(a1-3)]Man(b1-4)GlcNAc(b1-4)GlcNAc. The method, boiled down:
as §1

Test [7] concerns the target Gal(b1-4)GlcNAc(b1-2)[Gal(b1-4)GlcNAc(b1-6)]Man(a1-6)[Gal(b1-4)GlcNAc(b1-2)Man(a1-3)]Man(b1-4)GlcNAc(b1-4)[Fuc(a1-6)]GlcNAc. A digest of the protocol: as §1
Test [8] addresses Gal(b1-4)GlcNAc(b1-2)[Gal(b1-4)GlcNAc(b1-6)]Man(a1-6)[GlcNAc(b1-4)][Gal(b1-4)GlcNAc(b1-2)Man(a1-3)]Man(b1-4)GlcNAc(b1-4)GlcNAc. The method, boiled down: as §1
Test [9] addresses Gal(b1-4)GlcNAc(b1-2)[Gal(b1-4)GlcNAc(b1-6)]Man(a1-6)[GlcNAc(b1-4)][Gal(b1-4)GlcNAc(b1-2)[Gal(b1-4)GlcNAc(b1-4)]Man(a1-3)]Man(b1-4)GlcNAc(b1-4)[Fuc(a1-6)]GlcNAc. The method, boiled down:
as §1

The target in test [10] is Gal(b1-4)GlcNAc(b1-3)Gal(b1-3)GalNAc. The method, boiled down:
as §1

In test [11] the target is Gal(b1-4)GlcNAc(b1-3)Gal(b1-3)GlcNAc. The method, boiled down:
as §1

For test [12], the target named is Gal(b1-4)GlcNAc(b1-3)Gal(b1-4)Glc. The method, boiled down: as §1
The target in test [13] is Gal(b1-4)GlcNAc(b1-3)Gal(b1-4)GlcNAc. The method, boiled down:
as §1

The target in test [14] is Gal(b1-4)GlcNAc(b1-3)Gal(b1-4)GlcNAc(b1-2)Man(a1-3)[Gal(b1-4)GlcNAc(b1-3)Gal(b1-4)GlcNAc(b1-2)Man(a1-6)]Man(b1-4)GlcNAc(b1-4)GlcNAc. The method, boiled down:
as §1

Test [15] has as its target Gal(b1-4)GlcNAc(b1-3)Gal(b1-4)GlcNAc(b1-2)Man(a1-3)[Gal(b1-4)GlcNAc(b1-3)Gal(b1-4)GlcNAc(b1-2)Man(a1-6)]Man(b1-4)GlcNAc(b1-4)[Fuc(a1-6)]GlcNAc. The method, boiled down: as §1
The target of test [16] is Gal(b1-4)GlcNAc(b1-3)Gal(b1-4)GlcNAc(b1-2)[Gal(b1-4)GlcNAc(b1-3)Gal(b1-4)GlcNAc(b1-6)]Man(a1-6)[Gal(b1-4)GlcNAc(b1-3)Gal(b1-4)GlcNAc(b1-2)Man(a1-3)]Man(b1-4)GlcNAc(b1-4)GlcNAc. A digest of the protocol: as §1
Test [17] deals with Gal(b1-4)GlcNAc(b1-3)Gal(b1-4)GlcNAc(b1-2)[Gal(b1-4)GlcNAc(b1-3)Gal(b1-4)GlcNAc(b1-6)]Man(a1-6)[Gal(b1-4)GlcNAc(b1-3)Gal(b1-4)GlcNAc(b1-2)Man(a1-3)]Man(b1-4)GlcNAc(b1-4)[Fuc(a1-6)]GlcNAc. The method, boiled down: as §1
For test [18], the target named is Gal(b1-4)GlcNAc(b1-3)Gal(b1-4)GlcNAc(b1-3)Gal(b1-4)GlcNAc. The method, boiled down:
as §1

The target of test [19] is Gal(b1-4)GlcNAc(b1-3)Gal(b1-4)GlcNAc(b1-3)Gal(b1-4)GlcNAc(b1-2)Man(a1-3)[Gal(b1-4)GlcNAc(b1-3)Gal(b1-4)GlcNAc(b1-3)Gal(b1-4)GlcNAc(b1-2)Man(a1-6)]Man(b1-4)GlcNAc(b1-4)GlcNAc. The method, boiled down: as §1
In test [20] the target is Gal(b1-4)GlcNAc(b1-3)Gal(b1-4)GlcNAc(b1-3)Gal(b1-4)GlcNAc(b1-2)Man(a1-3)[Gal(b1-4)GlcNAc(b1-3)Gal(b1-4)GlcNAc(b1-3)Gal(b1-4)GlcNAc(b1-2)Man(a1-6)]Man(b1-4)GlcNAc(b1-4)[Fuc(a1-6)]GlcNAc. The method, boiled down: as §1
The target in test [21] is Gal(b1-4)GlcNAc(b1-3)Gal(b1-4)GlcNAc(b1-3)Gal(b1-4)GlcNAc(b1-2)[Gal(b1-4)GlcNAc(b1-3)Gal(b1-4)GlcNAc(b1-3)Gal(b1-4)GlcNAc(b1-6)]Man(a1-6)[Gal(b1-4)GlcNAc(b1-3)Gal(b1-4)GlcNAc(b1-3)Gal(b1-4)GlcNAc(b1-2)Man(a1-3)]Man(b1-4)GlcNAc(b1-4)[Fuc(a1-6)]GlcNAc. A digest of the protocol: as §1
Test [22] has as its target Gal(b1-4)GlcNAc(b1-3)Gal(b1-4)GlcNAc(b1-3)Gal(b1-4)GlcNAc(b1-3)Gal(b1-4)GlcNAc(b1-2)Man(a1-3)[Gal(b1-4)GlcNAc(b1-3)Gal(b1-4)GlcNAc(b1-3)Gal(b1-4)GlcNAc(b1-3)Gal(b1-4)GlcNAc(b1-2)Man(a1-6)]Man(b1-4)GlcNAc(b1-4)GlcNAc. The method, boiled down: as §1

This is one part of the list.

B1: rCnSL-proB (Clitocybe nebularis) (protein)
chain: PTFSPIFALLAFLPFGTLASLLPQTQLVFRINPNLPGPNDVFVGYRGTNNVVGAIYERDGIKDTPMNNGADAELGPGSYITDDLFTAQIFASGSAGNNPGTTATVCKIYADGVQWRGAPKGYLPVLYFGNGQAAEQTRQTYLQGLDIPGTAIRFANLAKTPNQGPTAPRQMVVPSGGLQTLLKASCFPANHAALPQVLSYFNVRAALPPGWNIRTGPEFPNWTN
With B1, the “glycan array binding signal (z-score)” value in test [1] is -0.177; in test [2], 0.152; in [3], 3.51; in test [4], -0.267; in [5], -0.082; in [6], 0.884. The “glycan array binding signal (z-score)” value in test [7] is 4.49; in test [8], 0.488; in [9], 1.09; in [10], -1.04; in test [11] it was 0.248; in test [12] it was -0.311. Moreover, the “glycan array binding signal (z-score)” value in test [13] is -0.151; in [14], 6.35; in test [15] it was 2.27; in test [16], 2.11; in test [17] it was 2.75; in [18] it was 0.2. The “glycan array binding signal (z-score)” value in test [19] stood at 4.18; in [20], 1.76; in test [21], 2.8; in test [22], 0.567.
